In PubChem BioAssay AID1347073 (National Center for Advancing Translational Sciences (NCATS), 2019):
Screen size: about 45,000 compounds; about 200 (0.44%) were called active. Roughly 7% stayed inconclusive and do not appear here. Calls come from the whole dose curve; as a rule, active = well fitted activation curve with a large enough effect; inconclusive = small, poorly fitted or top-dose-only effect; inactive = no such curve, though single readings can be large or run the other way. Some of the results follow.

Assay: qHTS of TDP-43 Inhibitors: NCGC Sytravon Library Screen; note: 0% is about no effect; nearly all actives have a fitted effect of over 55% in size
Settings: yeast TDP-43 toxicity rescue, BacTiter-Glo growth, 24 h; series mostly up to 46.1 µM; growth rescue (activation): at the top concentration
Method in brief: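 TDP-43-expressing yeast, pregrown in raffinose, seeded at OD600 0.02 in galactose medium with compound for 24 hr at 30 deg C. Growth read by BacTiter-Glo luminescence, so rescue of toxicity appears as activation.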

Structure (SMILES) | growth rescue (activation)
COc1ccc(NC(=O)N2CCC(C(=O)c3ccc4c(c3)OCCO4)CC2)cc1 | inactive: 7.79%
Cn1c(N)c(C(=O)COC(=O)/C=C/c2ccc(Cl)cc2Cl)c(=O)n(C)c1=O | inactive: -23.1%
CCCCCC1CC(=O)C=C(C)C1C(=O)OC (stereo not given) | inactive: -4.46%
CN(C(=O)CC1C(=O)NCCN1Cc1ccc(F)c(F)c1)C1CCOCC1 (stereo not given) | inactive: 4.73%
COC(=O)c1cn(C(=O)c2ccc(C)cc2C)c2ccccc12 | inactive: -0.133%
CC(C)c1ccc(NC(=S)Nc2ccc(OC(F)(F)F)cc2)cc1 | inactive: 11.7%
Cc1nc2c(OCc3ccc(C(F)(F)F)cc3)cccn2c1N(C)Cc1cccs1 | inactive: 24.5%
O=C(NC(=S)N1CCOCC1)c1cc2ccccc2o1 | inactive: 9.08%
O=C(Nc1ccccc1)c1ccccc1OCc1ccc(S(=O)(=O)N2CCOCC2)cc1 | inactive: 9.27%
Cc1cccc(C)c1NC(=O)CN(c1ccccn1)S(=O)(=O)c1ccccc1 | inactive: 11.4%
O=C(O)CC(NCc1ccco1)C(=O)Nc1cccc(O)c1 (stereo not given) | inactive: 36.8%
COc1cccc(/C=N/NC(=O)c2c(C)nc3ccc(Cl)cn23)c1O | inactive: 16.7%
O=c1[nH]c(=O)n(Cc2ccccc2)c2nc(-c3ccc(C(F)(F)F)cc3)n(CCO)c12 | inactive: 7.06%
O=C(COC(=O)c1cccc(S(=O)(=O)N2CCCCC2)c1)NCc1ccccc1 | inactive: 1.24%
CCOc1ccc(C(C)=O)cc1NC(=O)/C=C\C(=O)O | inactive: 18.4%
O=C1C(Cc2cccc([N+](=O)[O-])c2)S/C(=N/N=C/c2ccco2)N1c1ccccc1 (stereo not given) | inactive: 13.8%
CCC(=O)N1CCCC(C(=O)Nc2nc3ccccc3n2C)CC1 (stereo not given) | inactive: 4.76%
CNc1cncc(-c2cccc(C(C)=O)c2)n1 | inactive: 17.5%
OC1CCN(C(=S)Nc2ccc(Nc3ccccc3)cc2)CC1 | inactive: 10.9%
O=C(NCC(=O)N(c1ccccc1)C(C(=O)NC1CCCCC1)c1cccnc1)c1cccs1 (stereo not given) | inactive: -0.26%
CC1(C(=O)NS(=O)(=O)Cc2cccc(Cl)c2)CCN1C(=O)C/C=C/c1ccccc1 (stereo not given) | inactive: 10.4%
O=C(NCc1ccco1)c1ccc2c(c1)N(Cc1ccccc1)C(=O)c1ccccc1S2(=O)=O | inactive: 14.1%
Cc1ccc(C)c(C2C(=O)c3ccccc3C2=O)c1 | inactive: 15.5%
O=C(Nc1ccc2c(c1)OCO2)C1CC(c2cccc(Br)c2)=NO1 (stereo not given) | inactive: 10.5%
CCOc1ccc(N2CC(C(=O)Nc3nnc(Cc4ccc(OC)c(OC)c4)s3)CC2=O)cc1 (stereo not given) | inactive: 1.5%
COc1ccc(-c2cc3c(=O)n(CC(=O)NC4CCN(Cc5ccccc5)CC4)ncn3n2)cc1 | inactive: -13.9%
N=c1c(C(=O)NCCc2ccccc2)cc2c(=O)n3ccccc3nc2n1CCCN1CCOCC1 | inactive: 4.15%

Structure (SMILES) | growth rescue (activation)
CC1(C)Cc2ccccc2-c2nc3n(c(=O)c21)CCCS3 | inactive: 25.6%
S=C1NCCNC(=S)NCCOCCN1 | inactive: 1.78%
CC1CN(Cc2ccccc2)C(C)CC1O (stereo not given) | inactive: 16.4%
O=C1[C@@H]2[C@@H]3C[C@@H]([C@H]4ON=C(c5ccc(Cl)cc5)[C@@H]34)[C@@H]2C(=O)N1C1CCCCC1 | inactive: 25.6%
Cc1cc2oc(=O)sc2cc1NS(=O)(=O)c1cccc2cccnc12 | inactive: 7.65%
CC(=O)NN1C(=O)/C(=C/c2ccc(C(C)C)cc2)SC1=S | inactive: 9.51%
CC(C)C(NS(=O)(=O)c1cc(C(=O)O)ccc1Cl)C(=O)O (stereo not given) | inactive: 19.7%
CCCCn1c(N)c(N(C)C(=O)C2CC(=O)N(Cc3ccco3)C2)c(=O)[nH]c1=O (stereo not given) | inactive: -0.455%
CCc1nc2ccccc2n1Cc1ccc(OC)c(OC)c1 | inactive: -3.61%
O=C(CSc1nnc(-c2ccc(F)cc2)o1)NC1CCCC1 | inactive: 2%
O=C(Nc1ccccc1N1CCN(C(=O)c2ccccc2)CC1)c1ccc([N+](=O)[O-])o1 | inactive: 19.9%
COc1ccc(NC(=O)Nc2nc3ccccc3s2)cc1 | inactive: 9.92%
CCOCCc1nnc(NC(=O)C2CC(=O)N(CCc3ccc(F)cc3)C2)s1 (stereo not given) | inactive: 6.38%
COC(=O)Cc1[nH]n(-c2ccccc2)c(=O)c1C=Nc1ccc(C)cc1 | inactive: 12.7%
O=C(N/N=C/c1cn(-c2ccccc2)nc1-c1ccc(F)cc1)c1ccc(Br)o1 | inactive: 14.7%
Cc1ccc(-c2csc3ncnc(SCc4ccc(C(=O)O)cc4)c23)cc1 | inactive: 24.3%
CC(=O)Nc1cccc(/C(C)=N/NC(=O)c2cccs2)c1 | inactive: 11.5%
COc1ccc(N2CCN(C(=O)CN(C)S(=O)(=O)c3cc(C)ccc3OC)CC2)cc1 | inactive: 3.36%
CCCOc1ccc(F)cc1-c1cc(C(=O)NCc2ccccc2)[nH]n1 | inactive: 24.7%
O=C1C2C3C=CC(C3)C2C(=O)N1Nc1ccccc1 (stereo not given) | inactive: 5.72%
COc1cc(Cn2c3ccc(NC(=O)CC(C)C(F)(F)F)cc3c(=O)n2C)ccc1F (stereo not given) | inactive: 5.39%
CC(=N)C1=C(O)CC(c2ccccc2)CC1=O (stereo not given) | inactive: -49.4%
Cc1ccc(CNC(=O)COc2ccc(S(=O)(=O)N3CCCC3)cc2)cc1 | inactive: 5.38%
CCC(C)[C@H](NC(=O)C1CCC(CNC(=O)[C@@H]2CCCN2C(=O)OC(C)(C)C)CC1)C(=O)O (stereo not given in full) | inactive: 0.146%
CNC(=O)N(O)C1N(/N=C/c2cccs2)C(=S)SC1(C)C (stereo not given) | inactive: 2.2%
Cc1ncc(CO)c(/C=N/NC(=O)c2ccoc2C)c1O | inactive: -14.7%
O=C(Nc1ccccc1)C1CC(=O)n2c(nc3ccccc32)N1 (stereo not given) | inactive: 3.59%

Structure (SMILES) | growth rescue (activation)
CC(C)OP(=O)(OC(C)C)C(Nc1ccccn1)c1ccc(F)cc1 (stereo not given) | inactive: 20.6%
CCN(CC)CCCN=Cc1c(-c2ccccc2)[nH]n(-c2nc3ccccc3s2)c1=O | inactive: 19.9%
COc1ccc(C2C(C#N)=C(N)Oc3cc(O)ccc32)cc1 (stereo not given) | inactive: 0.748%
CC1CCC2C(=O)N(c3ccc(NC4CCCCC4)c([N+](=O)[O-])c3)C(=O)C2C1 (stereo not given) | inactive: -12.3%
Cc1ccc(NC(=O)C2CCCN(S(=O)(=O)c3cccc4nonc34)C2)cc1 (stereo not given) | inactive: -0.639%
O=C(CN(C(=O)c1csnn1)c1ccc(F)cc1)NCc1ccc(F)cc1 | inactive: 9.08%
CCOC(=O)C1(Cc2ccccc2)CCN(C2Cc3ccccc3C2)CC1 | inactive: 13.7%
Cc1cc(S(=O)(=O)N2CCOCC2)ccc1OCC(=O)N1CCC(C)CC1 | inactive: -1.71%
Cc1ccsc1C(=O)OCC(=O)NCc1ccccc1 | inactive: 20.2%
CSCCC(NC(=O)c1ccc(Cl)cc1)C(=O)OCC(=O)Nc1cc(Cl)ccc1C#N (stereo not given) | inactive: 0.763%
CCCn1c(=S)[nH]c2sc3c(c2c1=O)CCCC3 | inactive: 0.536%
CCOC(=O)Cc1csc(NC(=O)c2ccc3ccccc3n2)n1 | inactive: 1.81%
COc1ccc(CCNCc2ccccc2N2CCCC2)cc1 | inactive: -6.75%
O=C(CSc1nc2ccccc2o1)Nc1nc(-c2ccccc2)cs1 | inactive: 17.7%
COc1ccc(COC(=O)CN2C(=O)NC3(CC(C)CC(C)(C)C3)C2=O)cc1F (stereo not given) | inactive: -22.2%
C=CCNC(=S)N1CCN(C2CCCCC2)CC1 | inactive: 19.7%
CC(=O)Nc1ccc(NC(=O)CNC(=O)COc2ccccc2)cc1 | inactive: 9.52%
O=S(=O)(c1ccc(NC(=S)NCc2ccco2)cc1)N1CCCC1 | inactive: -7.11%
COc1cc(/C=C(/C#N)c2nc3ccccc3c(=O)[nH]2)ccc1O | inactive: -1.21%
CN(C)N(C)C(=O)C(O)(c1ccccc1)c1ccccc1 | inactive: 15.7%
Cc1ccc(NCc2ccc(Cl)nc2)c(NCc2ccc(Cl)nc2)c1 | inactive: 15.2%
O=C(CCc1ccccc1)NNC(=O)c1cccc(F)c1 | inactive: 0.708%
Cc1cccc(NC(=S)NC(=O)c2ccc(Br)o2)c1 | inactive: 22.7%
CN(Cc1cccnc1)Cc1cn[nH]c1-c1ccc(-c2ccccc2)cc1 | inactive: 5.12%
CNC(=O)C1(C)Cc2c(-c3ccc4c(c3)OCO4)ccnc2O1 (stereo not given) | inactive: -1.68%
CCCN(CCC)c1ccc(/C=N/NC(=O)CN2CCOCC2)cc1 | inactive: -8.15%
Cc1nn(-c2ccccc2)c(N2CCCC2)c1/C=N/Nc1ccc(S(N)(=O)=O)cc1[N+](=O)[O-] | inactive: -0.695%

Structure (SMILES) | growth rescue (activation)
O=C(COC(=O)c1ccc(N2CCCC2=O)cc1)c1ccc(OC(F)F)cc1 | inactive: 6.87%
CN(CCCNC(=O)c1cc2c(Cl)nc3ccccc3c2s1)Cc1ccccc1 | inactive: -0.829%
CCOCCCn1c(SCC(=O)Nc2ccc(OC)cc2)nc2ccccc2c1=O | inactive: -5.76%
CC(=O)Nc1ccc(-c2csc(NC(=O)CCCc3cccs3)n2)cc1 | inactive: 7.07%
COc1ccc(C(C)(NC(C)=O)c2nc(-c3cccc(C(=O)O)c3)cs2)cc1 (stereo not given) | inactive: -13.1%
CN1C(=O)[C@@H]2[C@@H]3C[C@@H]([C@H]4ON=C(c5ccc(Cl)cc5)[C@@H]34)[C@@H]2C1=O | inactive: 1.98%
O=C(CN1C(=O)NC2(CCCC2)C1=O)Nc1ccc(F)c([N+](=O)[O-])c1 | inactive: -6.1%
CCc1nc2ccc(C(=O)Nc3cccc(NS(C)(=O)=O)c3)cn2c1N(C)C(=O)c1cccc(OC)c1 | inactive: 8.36%
O=C1CCCN1CCCNC(=S)Nc1cccc2ccccc12 | inactive: -11.6%
O=C(NCCc1ccccc1)c1ccc2c(c1)N(Cc1ccc(F)cc1)C(=O)c1ccccc1S2(=O)=O | inactive: 5.28%
Cc1nn(-c2ccccc2)c2c1C(c1ccc(F)cc1)C(C#N)=C(N)O2 (stereo not given) | inactive: 4.08%
COc1ccc2oc(C(=O)NCC(Cc3ccccc3)N(C)C)c(C)c2c1 (stereo not given) | inactive: 13.3%
CCCCOC(=O)/C=C/c1ccc(OC(=O)OC)c(OC(=O)OC)c1 | inactive: -35.5%
O=C(CN1CCCCC1)Nc1c2c(nc3ccccc13)N(c1ccccc1)CC2 | inactive: 4.38%
CCOC(=O)C1=C(CC)OC(N)=C(C#N)C1c1ccc(NC(C)=O)cc1 (stereo not given) | inactive: 3.8%
Cc1cccc(Cn2c(O)c(N=NC(=S)Nc3ccccc3F)c3ccccc32)c1 | inactive: 21.7%
Cc1cccc(NS(=O)(=O)c2ccc3c(c2)oc(=O)n3C)c1C | inactive: 4.48%
O=C(Nc1cc(S(=O)(=O)N2CCCCC2)ccc1O)c1ccccc1NS(=O)(=O)c1ccc(F)cc1 | inactive: 4.5%
O=C(NC(=S)N1CCN(c2ccccc2)CC1)c1ccco1 | inactive: 25.1%
Cc1ccc(/C=N/N2CCN(Cc3cccc4ccccc34)CC2)s1 | inactive: -4.1%
CN(C)S(=O)(=O)c1cccc(NC(=O)COC(=O)/C=C/c2cccs2)c1 | inactive: 5.72%
COc1ccccc1CN(C)CC(=O)NC1CCCc2ccccc21 (stereo not given) | inactive: 1.9%
O=c1c2ccccc2[nH]c2ccc(O)cc12 | inactive: -35.9%
CN(C)C(CNC(=O)C1CCN(S(=O)(=O)c2cccc(Cl)c2Cl)CC1)c1ccccc1 (stereo not given) | inactive: 21.6%
